{"source": "PubChem BioAssay AID504339", "about": "(National Center for Advancing Translational Sciences (NCATS), 2011)", "note": "Screen size: about 390,000 compounds; about 17,000 (4.4%) were called active. The inconclusive results got no clear call from the source; some entries with a clear call stand among them for comparison. Calls follow the shape of the dose curve; as a rule, active = well fitted inhibition curve with a large enough effect; inconclusive = small, poorly fitted or top-dose-only effect; inactive = no such curve, though single readings can be large or run the other way. Where the call is inconclusive, the potency comes from a doubtful curve fit. % is scaled to controls: 0 for no effect and ±100 for the full control effect; potency is read from the fitted curve at half-maximal effect; tags tell the direction and shape of the fitted curve."}
{"biological_target": "Lysine-specific demethylase 4A (Homo sapiens) (UniProt O75164)", "sequence (O75164 whole entry, looked up, the tested form may be a part)": "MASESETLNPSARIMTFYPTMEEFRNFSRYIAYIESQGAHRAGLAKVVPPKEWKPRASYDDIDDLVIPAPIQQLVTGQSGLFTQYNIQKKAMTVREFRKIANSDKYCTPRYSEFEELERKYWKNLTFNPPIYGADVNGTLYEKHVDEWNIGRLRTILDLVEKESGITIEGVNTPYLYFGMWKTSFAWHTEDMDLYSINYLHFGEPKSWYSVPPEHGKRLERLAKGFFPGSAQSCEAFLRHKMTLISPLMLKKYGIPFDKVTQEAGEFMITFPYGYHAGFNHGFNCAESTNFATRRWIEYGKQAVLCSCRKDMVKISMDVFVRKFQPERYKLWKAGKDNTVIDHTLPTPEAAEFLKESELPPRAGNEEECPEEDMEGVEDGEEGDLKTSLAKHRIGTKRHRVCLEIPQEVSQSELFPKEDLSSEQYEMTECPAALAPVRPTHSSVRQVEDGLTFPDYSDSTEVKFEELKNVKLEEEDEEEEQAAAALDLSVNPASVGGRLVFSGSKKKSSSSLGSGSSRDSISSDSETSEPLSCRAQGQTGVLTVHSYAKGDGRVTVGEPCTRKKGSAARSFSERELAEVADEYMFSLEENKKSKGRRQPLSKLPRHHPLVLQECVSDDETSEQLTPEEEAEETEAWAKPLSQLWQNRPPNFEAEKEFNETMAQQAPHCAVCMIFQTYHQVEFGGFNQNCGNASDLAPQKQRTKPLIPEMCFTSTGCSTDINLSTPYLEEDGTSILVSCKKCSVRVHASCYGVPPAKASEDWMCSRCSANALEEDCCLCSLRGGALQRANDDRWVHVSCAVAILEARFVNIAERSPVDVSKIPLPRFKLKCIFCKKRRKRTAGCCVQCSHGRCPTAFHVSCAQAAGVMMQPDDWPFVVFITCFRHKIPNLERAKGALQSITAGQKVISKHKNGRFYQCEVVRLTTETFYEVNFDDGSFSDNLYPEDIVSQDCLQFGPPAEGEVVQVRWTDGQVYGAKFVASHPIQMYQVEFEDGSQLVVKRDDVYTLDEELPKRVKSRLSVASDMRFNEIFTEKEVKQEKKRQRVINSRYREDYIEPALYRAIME", "experiment": "qHTS Assay for Inhibitors of JMJD2A-Tudor Domain; also: nearly all actives have a fitted effect of over 50% in size", "conditions": "AlphaScreen JMJD2A-Tudor / H3K4me3 peptide binding; activity change, negative = inhibition: at 114 µM (top of the series)"}
{"smiles": "O=S(=O)(c1ccc(S(=O)(=O)N2CCC3(CC2)OCCO3)cc1)N1CCCC1", "Potency": "inactive"}
{"smiles": "CCCCCn1c(N)c(-c2nc3ccccc3o2)c2c([N+](=O)[O-])nn(CC)c(=O)c21", "Potency": "inconclusive: 44.7 µM [inhibitor, full curve, poor fit]"}
{"smiles": "C/C(=N\\NC(=O)CCCNc1ccc(C)cc1)c1ccccn1", "Potency": "inconclusive: 79.4 µM [inhibitor, partial curve]"}
{"smiles": "O=C(Cn1nnc(-c2ccc3c(c2)OCO3)n1)Nc1ccccc1C(=O)O", "Potency": "inconclusive: 89.1 µM [inhibitor, single point]"}
{"smiles": "Nn1c(Cc2cccc3ccccc23)nnc1SCn1nnc2ccccc2c1=O", "Potency": "inactive"}
{"smiles": "Cn1c(CNC(=O)CCNC(=O)c2cccc(Cl)c2)cc(=O)n(C)c1=O", "Potency": "inactive"}
{"smiles": "CCOc1ccc(/C(O)=C2\\C(=O)C(=O)N(CCOCCO)C2c2ccccc2OC)cc1", "note": "(stereo not drawn)", "Potency": "active: 17.8 µM"}
{"smiles": "Cc1ccc(C)c(-n2c(-c3cccnc3)n[nH]c2=S)c1", "Potency": "active: 22.4 µM"}
{"smiles": "CC1CC(C)CN(C(=O)COC(=O)Cc2ccc(Br)cc2)C1", "note": "(stereo not drawn)", "Potency": "inactive"}
{"smiles": "Cn1c(CS/C(N)=N/N=C/c2ccccc2)c(Br)c(=O)n1-c1ccccc1", "Potency": "active: 50.1 µM"}
{"smiles": "Cc1csc(NC(=O)CSc2nnc(C)c(=O)n2N)n1", "Potency": "inactive"}
{"smiles": "CCCSC1=C(C#N)C(c2cccs2)CC(=O)N1", "note": "(stereo not drawn)", "Potency": "inactive"}
{"smiles": "COc1ccc(-n2c(CN3CCOCC3)nc3ccc([N+](=O)[O-])cc3c2=O)c(OC)c1", "Potency": "inactive"}
{"smiles": "Cc1[nH]nc(-c2ccc(O)cc2O)c1-c1ccc(Cl)cc1", "Potency": "inconclusive: 89.1 µM [inhibitor, partial curve]"}
{"smiles": "CCOC(=O)c1cc(C)n(CC2CCC(C(=O)Nc3ccc(OC)cc3)CC2)c1C", "note": "(stereo not drawn)", "Potency": "inactive"}
{"smiles": "Cc1ccc(CN2C(=O)C(CC(C)C)Nc3ncnc(N4CCOCC4)c32)cc1", "note": "(stereo not drawn)", "Potency": "inconclusive: 15.8 µM [inhibitor, single point]"}
{"smiles": "COc1ccc(C(=O)NC2CCCc3c2cnn3-c2cc(F)cc(F)c2)c(OC)c1OC", "note": "(stereo not drawn)", "Potency": "inactive"}
{"smiles": "Cc1ccc(Nc2ncnc3ccccc23)cc1", "Potency": "inactive"}
{"smiles": "CC1=C([N+](=O)[O-])C(c2ccc3c(c2)OCO3)N(C)C(=O)N1C", "note": "(stereo not drawn)", "Potency": "inconclusive: 15.8 µM [inhibitor, partial curve, poor fit]"}
{"smiles": "Cc1c(CC(=O)NCCCC(=O)O)c(=O)oc2cc3c(cc12)CCC(C)(C)O3", "Potency": "inconclusive: 39.8 µM [inhibitor, partial curve]"}
{"smiles": "O=C(CN1CCN(c2ccc(F)cc2)CC1)Nc1ccccc1[N+](=O)[O-]", "Potency": "inconclusive: 12.6 µM [inhibitor, partial curve, poor fit]"}
{"smiles": "COc1ccc(CCNc2ncnc3c2c(-c2ccccc2)cn3-c2ccc(Cl)cc2)cc1OC", "Potency": "inconclusive: 39.8 µM [inhibitor, full curve, poor fit]"}
{"smiles": "CCc1ccc(-n2ccc(=O)c(C(=O)O)n2)cc1", "Potency": "inconclusive: 56.2 µM [inhibitor, partial curve]"}
{"smiles": "COc1cccc(-c2nc(CS(=O)(=O)CC(=O)Nc3cccc(C(C)=O)c3)c(C)o2)c1", "Potency": "inconclusive: 17.8 µM [inhibitor, full curve, poor fit]"}
{"smiles": "O=C(C1CCN(S(=O)(=O)c2ccccc2)CC1)N1CCc2ccccc21", "Potency": "inactive"}
{"smiles": "Nc1cccn2c(-c3ccc(Cl)c(Cl)c3)cnc12", "Potency": "active: 50.1 µM"}
{"smiles": "COc1cc2c(CCNC(C)=O)c[nH]c2cc1O", "Potency": "inactive"}
{"smiles": "COc1ccc(N2CCN(c3ncnc4scc(-c5ccccc5)c34)CC2)cc1", "Potency": "active: 25.1 µM"}
{"smiles": "CCOC(=O)c1[nH]cnc1C(=O)Nc1ccncc1", "Potency": "active: 28.2 µM"}
{"smiles": "COc1ccc(N(CC(=O)Nc2cc(OC)cc(OC)c2)S(=O)(=O)c2c(C)noc2C)cc1", "Potency": "inactive"}
{"smiles": "CN1CCN(S(=O)(=O)c2cccc(C(=O)NC3(C)CCS(=O)(=O)C3)c2)CC1", "note": "(stereo not drawn)", "Potency": "inactive"}
{"smiles": "Cc1cccc(-n2cnc3cc(C(=O)NCc4ccccc4Cl)ccc32)c1", "Potency": "inactive"}
{"smiles": "N#CC(C#N)=Cc1cccn1-c1ccc(C(=O)O)cc1", "Potency": "inconclusive: 39.8 µM [inhibitor, single point]"}
{"smiles": "O=C(CNC(=O)c1cccs1)Nc1ccc2c(c1)OCCO2", "Potency": "inactive"}
{"smiles": "COc1ccc(C2c3c(ncn(Cc4ccco4)c3=N)Oc3ccc4ccccc4c32)cc1", "note": "(stereo not drawn)", "Potency": "inconclusive: 44.7 µM [inhibitor, single point]"}
{"smiles": "Cc1cccc(OCCC(=O)Nc2ccc(C)c(S(=O)(=O)N3CCCCC3)c2)c1", "Potency": "inactive"}
{"smiles": "COc1cccc(OCC(O)CN2CCN(CCO)CC2)c1", "note": "(stereo not drawn)", "Potency": "inconclusive: 25.1 µM [inhibitor, full curve]"}
{"smiles": "Cc1sc(-c2ccccn2)nc1OC(=O)c1ccc(Cl)c(Cl)c1", "Potency": "inactive"}
{"smiles": "CN(C)c1ccc(C(O)c2cc3ccccc3s2)cc1", "note": "(stereo not drawn)", "Potency": "active: 31.6 µM"}
{"smiles": "COc1cccc(CN2C(=O)c3cccc(N)c3C2=O)c1", "Potency": "inactive"}
{"smiles": "COc1ccc(N2CCN(C(=O)C3CC(=O)N(c4ccc(C)cc4)C3)CC2)cc1", "note": "(stereo not drawn)", "Potency": "inactive"}
{"smiles": "CC(=O)N1c2ccc(S(=O)(=O)NCCC(=O)Nc3ccc(OC(F)(F)F)cc3)cc2CC1C", "note": "(stereo not drawn)", "Potency": "inconclusive: 14.1 µM [inhibitor, partial curve, poor fit]"}
{"smiles": "Clc1ccc2c(SCC3CO3)c3ccccc3nc2c1", "note": "(stereo not drawn)", "Potency": "inactive"}
{"smiles": "C#CCOCCOCCOCCNc1nc(N2CCN(C(=O)[C@H](CC(N)=O)n3cc([C@@H](N)CC(N)=O)nn3)CC2)nc(N2CCN(C(=O)[C@H](CC(N)=O)n3cc([C@@H](N)CC(N)=O)nn3)CC2)n1", "Potency": "active: 25.1 µM"}
{"smiles": "O=C(NC(=S)Nc1ccccc1N1CCOCC1)c1ccc([N+](=O)[O-])cc1", "Potency": "inactive"}
{"smiles": "O=C(CNC1CCCCCC1)Nc1ccccc1N1CCCCC1", "Potency": "active: 1.41 µM"}
{"smiles": "Cc1cc(N2CCN(C)CC2)nc2ccc(NC(=S)NCCC(C)C)cc12", "Potency": "inconclusive: 63.1 µM [inhibitor, partial curve]"}
{"smiles": "COc1ccc2c(c1)c1ncn(Cc3ccco3)c(=O)c1n2C", "Potency": "inactive"}
{"smiles": "Cc1cccc(OCCn2cc(/C=N/NC(=O)c3ccncc3)c3ccccc32)c1", "Potency": "inconclusive: 25.1 µM [inhibitor, full curve, poor fit]"}
{"smiles": "CC1CCCCN1Cc1c(O)ccc2c(=O)c(-c3ccc(Cl)cc3)c(C(F)(F)F)oc12", "note": "(stereo not drawn)", "Potency": "inactive"}
{"smiles": "Cc1cc(OC(=O)c2ccc(C)c(C)c2)c([N+](=O)[O-])c(=O)[nH]1", "Potency": "inactive"}
{"smiles": "Cc1cc(C2=NNC(=Nc3ccc(S(=O)(=O)N4CCOCC4)cc3)SC2)c(C)n1CC1CCCO1", "note": "(stereo not drawn)", "Potency": "inconclusive: 63.1 µM [inhibitor, partial curve]"}
{"smiles": "Cc1cccc(-n2c(C)nc3cc(C(=O)N4CCOCC4)ccc32)c1", "Potency": "inconclusive: 17.8 µM [inhibitor, single point]"}
{"smiles": "COc1ccc(Nc2ncnc3c2cnn3Cc2ccccc2)cc1", "Potency": "active: 89.1 µM"}
{"smiles": "N#Cc1c(C(F)(F)F)cc(-c2ccc(F)cc2)nc1SCC(=O)O", "Potency": "inactive"}
{"smiles": "Cc1ccc(Sc2ncccc2C(=O)NCc2cc([N+](=O)[O-])ccc2O)c(C)c1", "Potency": "inactive"}
{"smiles": "O=C(Nc1cccc(-n2cccn2)c1)C1CCCN(Cc2cc3ccccc3[nH]2)C1", "note": "(stereo not drawn)", "Potency": "inconclusive: 25.1 µM [inhibitor, full curve]"}
{"smiles": "O=C(C1=C(O)C(=O)N(CC2CCCO2)C1c1ccccc1F)c1ccco1", "note": "(stereo not drawn)", "Potency": "inactive"}
{"smiles": "Cc1ccc(C(=O)Nc2ncccc2O)cc1S(=O)(=O)N1CCCCC1", "Potency": "inconclusive: 17.8 µM [inhibitor, partial curve]"}
{"smiles": "CCOc1ccccc1CNC(=O)Cn1c(=O)c2cccn2c2ccc(F)cc21", "Potency": "inactive"}
{"smiles": "CN(C)c1ccc(CN(C(=O)/C=C/c2ccccc2Cl)C2CCS(=O)(=O)C2)cc1", "note": "(stereo not drawn)", "Potency": "active: 44.7 µM"}
{"smiles": "CCCCOc1ccc(N2C(=O)C(C)CNC2=S)cc1", "note": "(stereo not drawn)", "Potency": "inconclusive: 100 µM [inhibitor, single point]"}
{"smiles": "CCOc1nc(SC(C(C)=O)C(=O)Nc2ccccc2)nc(N(C)C)n1", "note": "(stereo not drawn)", "Potency": "active: 79.4 µM"}
{"smiles": "Cc1ccc(-n2ncc(C(=O)Nc3ccc4c(c3)OCCO4)c2C2CCN(C(=O)OC(C)(C)C)CC2)cc1C", "Potency": "inactive"}
{"smiles": "CC(C)n1ncc2c(C(=O)O)cc(C3CC3)nc21", "Potency": "inconclusive: 14.1 µM [inhibitor, single point]"}
{"smiles": "Cc1cccc(CN2CCN(c3ncccn3)CC2)c1", "Potency": "active: 2.82 µM"}
{"smiles": "COc1ccc(/C=N/n2c(-c3n[nH]c4c3CCC4)n[nH]c2=S)cc1OC", "Potency": "active: 1.41 µM"}
{"smiles": "COC(=O)C1CCN(C(=O)/C=C/c2ccc3c(c2)OCO3)CC1", "Potency": "inconclusive: 39.8 µM [inhibitor, partial curve]"}
{"smiles": "N#CC(C(=O)C12CC3CC(CC(C3)C1)C2)c1nc2ccccc2[nH]1", "note": "(stereo not drawn)", "Potency": "inactive"}
{"smiles": "O=[N+]([O-])c1cccc(Cl)c1NCCNS(=O)(=O)c1ccc(Cl)cc1", "Potency": "inconclusive: 44.7 µM [inhibitor, partial curve]"}
{"smiles": "COc1ccc(COCC(O)CN2CCN(S(=O)(=O)c3c(F)cccc3F)CC2)cc1OC", "note": "(stereo not drawn)", "Potency": "inactive"}
{"smiles": "CCOc1ccc2nc(N(CCN(C)C)C(=O)c3ccc4c(c3)CCCC4)sc2c1", "Potency": "active: 35.5 µM"}
{"smiles": "CC(=O)NC(c1ccccc1)c1cc(Cl)c2cccnc2c1O", "note": "(stereo not drawn)", "Potency": "inconclusive: 89.1 µM [inhibitor, partial curve]"}
{"smiles": "COc1cc(Cl)ccc1NC(=O)COc1ccccc1C(=O)N1CCN(c2ccc(O)cc2)CC1", "Potency": "inconclusive: 50.1 µM [inhibitor, partial curve]"}
{"smiles": "S=c1[nH]cc(-c2ccc(Cl)cc2)n1Cc1ccccc1", "activity change, negative = inhibition": "inactive: -2.21% [at 11.4 µM]"}
{"smiles": "Cc1ccc(Cn2c(CN3CCC(C(=O)NCCc4ccccc4)CC3)cc3ccccc32)cc1", "Potency": "active: 39.8 µM"}
{"smiles": "Cc1ccc(S(=O)(=O)CCC(=O)Nc2nnc(-c3ccco3)o2)cc1", "Potency": "active: 17.8 µM"}
{"smiles": "CCN1CCN(c2oc(-c3ccccc3)nc2S(=O)(=O)c2ccc(C)cc2)CC1", "Potency": "inconclusive: 44.7 µM [inhibitor, partial curve]"}
